Measurements as given in the supplement of paper PMC4166925.
± gives the standard deviation of the averaged measurements. Whole data set: some 33,000 sequences, median “E-score (dimensionless, -0.5 to 0.5)” near -0.049, cut for the highest 2% near 0.37. This is one part of the list.

tested on: T1, PmTbr T-box DNA-binding domain (GST fusion); assay: PBM E-score of 8-mer (E-score (dimensionless, -0.5 to 0.5)); Tbr is Tbrain of the sea star Patiria miniata (Pm) or the sea urchin Strongylocentrotus purpuratus (Sp); higher = stronger binding preference; most listed sequences are background and not binding sites; conditions: the construct has about 5 more residues each side
T1 sequence: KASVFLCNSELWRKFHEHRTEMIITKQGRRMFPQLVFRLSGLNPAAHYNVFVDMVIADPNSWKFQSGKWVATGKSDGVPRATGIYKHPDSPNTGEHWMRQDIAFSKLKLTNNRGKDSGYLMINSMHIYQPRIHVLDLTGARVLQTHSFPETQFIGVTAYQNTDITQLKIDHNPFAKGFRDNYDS
Outline: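 GST-fused Tbr T-box DNA-binding domains (the whole T-box plus about five flanking residues) were expressed in BL21 E. coli at 20 °C and purified by glutathione affinity chromatography. Universal Agilent oligonucleotide arrays were made double-stranded by primer extension, incubated with 200 nM protein in PBS (pH 7.5), then scanned and quantified. Every ungapped 8-mer was scored from probe intensities. The Universal PBM Analysis Suite gave each word an enrichment E-score, averaged over duplicate arrays.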

Row | Sequence | PBM E-score of 8-mer
1 | CCGATCCA | -0.117 ± 0.03
2 | AACGGGCT | -0.184 ± 0.071
3 | GGTGATTA | 0.193 ± 0.065
4 | ACCCTCCA | 0.0539 ± 0.02
5 | AACTTGCG | 0.137 ± 0.02
6 | ATCAGACA | -0.122 ± 0.09
7 | CTAGTTAC | -0.0386 ± 0.035
8 | GTACATTA | -0.228 ± 0.017
9 | AAGGATTA | -0.163 ± 0.041
10 | AGGTTGAC | 0.179 ± 0.021
11 | AGAGATTA | -0.207 ± 0.0077
12 | ACCCGACG | 0.19 ± 0.0099
13 | ACTAACCA | 0.0293 ± 0.14
14 | GCGCCTAA | 0.144 ± 0.0023
15 | CATAGGAG | -0.0925 ± 0.037
16 | CACCGAAA | -0.136 ± 0.0079
17 | CTCACAGC | 0.32 ± 0.026
18 | ACCAATTG | -0.137 ± 0.0072
19 | ATCTGCGG | -0.102 ± 0.0068
20 | AGAACCGG | -0.197 ± 0.043
21 | ACGCCTCC | 0.348 ± 0.017
22 | ATCCCCAG | -0.138 ± 0.097

Row | Sequence | PBM E-score of 8-mer
23 | AAATCCTA | -0.272 ± 0.029
24 | ACTGAAGA | -0.088 ± 0.078
25 | AGGGGGAG | -0.216 ± 0.021
26 | AGCCGTTG | -0.0838 ± 0.0032
27 | CCGTTGCC | 0.0157 ± 0.0058
28 | CCCGGCGC | 0.0568 ± 0.086
29 | ATCTGAAT | -0.103 ± 0.0079
30 | ACAGGGAG | -0.0135 ± 0.0075
31 | GGCTGTCA | 0.237 ± 0.024
32 | CCGAACTC | -0.178 ± 0.06
33 | AGTGCAGG | -0.143 ± 0.038
34 | AGATACCA | -0.199 ± 0.12
35 | CCATGTAA | -0.0283 ± 0.12
36 | AGCGGAAA | -0.0011 ± 0.022
37 | ACTCTCAT | -0.00605 ± 0.049
38 | ATACCTTA | 0.0857 ± 0.093
39 | TAAGGCAA | -0.00958 ± 0.091
40 | AGTGTTAG | 0.407 ± 0.014
41 | TCAGGCCA | -0.242 ± 0.011
42 | CCACGGCA | -0.00996 ± 0.0087
43 | AGTCATTG | -0.17 ± 0.052
44 | CTCCAGGC | -0.212 ± 0.045

Row | Sequence | PBM E-score of 8-mer
45 | CTTGCGGC | -0.0279 ± 0.059
46 | AATCCCGG | -0.136 ± 0.02
47 | GGCAGCAA | 0.0182 ± 0.0089
48 | GCGAACGA | 0.243 ± 0.031
49 | CTTCTGCA | -0.0259 ± 0.082
50 | ACACCCTC | 0.429 ± 0.0062
51 | ATGCGACA | 0.3323 ± 0.0011
52 | GGCCGGCC | -0.0533 ± 0.00084
53 | ACAATTTA | -0.0673 ± 0.027
54 | AACGCACG | 0.0465 ± 0.039
55 | TCACACAA | 0.414 ± 0.015
56 | GAATCTGA | -0.0454 ± 0.055
57 | ACGTCCGA | -0.132 ± 0.0042
58 | AGTCTTAC | -0.0984 ± 0.0076
59 | AGCTTGCA | -0.0385 ± 0.069
60 | AAGTTTGA | -0.0349 ± 0.063
61 | CACGAGCC | 0.0885 ± 0.03
62 | AATCGTGT | 0.217 ± 0.036
63 | AAGATGTC | 0.0599 ± 0.045
64 | CTTTCCAA | -0.318 ± 0.022
